Screen size: about 310,000 compounds; about 14,000 (4.5%) showed an effect of 50% or more. Effects have a minus sign here. The list shows a part of the results. *1 amine or outer side, *2 acyl side, *3 side chain or, on linkers, in order; H or OH if unused. Where a SMILES comes first, the peptide text is derived from it. Bridges are numbered along the chain shown (N, C = ends). [ ]: non-standard residue; d: D form. ξ: configuration not given here. hSer(Ph(2-I,4-NO2,6-CO)) = O=C([C@H](CCOc1c(I)cc([N+](=O)[O-])cc1C(=O)[*:3])N[*:1])[*:2]; ξD = NC(CC(=O)O)C(=O)O
molecular target: human ether-à-go-go-related gene (hERG) potassium channel (human, UniProt Q12809); assay: primary screen, population patch clamp on CHO cells stably expressing hERG
Sequence (Q12809 whole entry, looked up): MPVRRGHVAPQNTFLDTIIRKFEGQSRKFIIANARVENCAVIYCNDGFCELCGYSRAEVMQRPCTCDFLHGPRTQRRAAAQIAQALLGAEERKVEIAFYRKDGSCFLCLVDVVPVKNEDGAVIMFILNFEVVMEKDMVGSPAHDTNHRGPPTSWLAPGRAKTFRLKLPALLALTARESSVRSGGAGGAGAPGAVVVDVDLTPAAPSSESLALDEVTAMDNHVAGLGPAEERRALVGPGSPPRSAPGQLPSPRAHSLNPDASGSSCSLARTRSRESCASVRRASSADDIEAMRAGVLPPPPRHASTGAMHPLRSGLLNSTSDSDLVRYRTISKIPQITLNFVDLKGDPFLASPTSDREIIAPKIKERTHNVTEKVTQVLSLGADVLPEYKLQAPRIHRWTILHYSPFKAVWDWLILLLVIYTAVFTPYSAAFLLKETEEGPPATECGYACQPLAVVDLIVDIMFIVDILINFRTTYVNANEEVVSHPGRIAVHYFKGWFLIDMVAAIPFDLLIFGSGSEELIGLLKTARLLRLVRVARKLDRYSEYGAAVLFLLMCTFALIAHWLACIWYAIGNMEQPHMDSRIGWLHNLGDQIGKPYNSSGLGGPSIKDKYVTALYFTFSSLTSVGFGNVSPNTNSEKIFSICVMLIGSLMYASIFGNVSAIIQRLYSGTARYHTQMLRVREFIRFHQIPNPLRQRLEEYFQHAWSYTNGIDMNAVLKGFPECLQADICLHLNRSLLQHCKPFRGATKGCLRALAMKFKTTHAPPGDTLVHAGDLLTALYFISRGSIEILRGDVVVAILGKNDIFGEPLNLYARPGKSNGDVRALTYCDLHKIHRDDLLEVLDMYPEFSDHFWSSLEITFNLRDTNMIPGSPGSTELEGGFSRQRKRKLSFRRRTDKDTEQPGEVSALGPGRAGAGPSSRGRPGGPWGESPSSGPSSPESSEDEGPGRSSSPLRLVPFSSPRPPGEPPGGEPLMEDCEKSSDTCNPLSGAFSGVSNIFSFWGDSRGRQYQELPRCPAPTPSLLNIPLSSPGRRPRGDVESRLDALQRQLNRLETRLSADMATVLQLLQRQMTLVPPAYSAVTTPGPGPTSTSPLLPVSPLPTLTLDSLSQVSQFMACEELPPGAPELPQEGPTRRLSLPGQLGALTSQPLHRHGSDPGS
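Further: peak tail current of the secondary pulse compared with the same well before compound.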

In order of falling “hERG current change (%, negative = inhibition) at 10uM” value:
1. Cc1ccc(N2C(=O)C3C(c4ccccc4)(C2=O)C3(c2ccccc2)c2ccccc2)cc1 (centres unmarked)  28.3%
2. COc1ccccc1NC(=O)Cn1cc(C(=O)C(=O)N2CCOCC2)c2ccccc21  25.4%
3. COc1ccc(Br)cc1/C=N/N1CCN(Cc2ccccc2Cl)CC1  24.7%
4. C[C@@H]1NC(=O)[C@H](CCCN=C(N)N)NC(=O)c2cc([N+](=O)[O-])cc(I)c2OCC[C@@H](C(=O)NC(CC(=O)O)C(N)=O)NC1=O (some centres unmarked) (RA[hSer(Ph(2-I,4-NO2,6-CO))][ξD]-NH2; lactam N-3)  21.9%
5. COCCNC(=O)CN(C(=O)CCC(=O)Nc1ccccn1)c1ccc(OC)cc1  17.8%
6. COC(=O)N1C(=O)[C@](c2ccccc2)(C2CCCC2)N1C(=O)OC  17.2%
7. Cc1ccc2nsnc2c1NC(=O)c1cncc(Br)c1  16.4%
8. Cc1ccc(-n2nc(C(=O)O)cc2-c2ccccc2)cc1  14.5%
9. CN(Cc1cnn(C)c1)C(=O)CC1C(=O)NCCN1Cc1cccc(Oc2ccccc2)c1 (centres unmarked)  14.3%
10. Cc1ccc2nc3c(cc2c1)c(NC(=O)c1ccco1)nn3CC(C)C  14.2%
11. COc1cc2cc(CCCOC(=O)CCCC(=O)O)oc(=O)c2cc1OC  14%
12. COc1ccc(C(=O)/C=C2/C(=O)Nc3ccccc32)cc1  13.3%
13. O=C1CC(N2CCSCC2)C(=O)N1c1cccc(Cl)c1 (centres unmarked)  12.4%
14. CC1CCC(NC(=O)c2cnccn2)CC1 (centres unmarked)  11.6%
15. Cc1ccc(CNC(=O)C2CCCN2C(=O)Nc2ccc(C)cc2)cc1 (centres unmarked)  10.7%
16. Cc1ccccc1OCC(=O)N/N=C/c1ccc(Sc2nc3ccccc3s2)o1  10.4%
17. Cc1ccc(SCC(=O)NC2CCS(=O)(=O)C2)cc1 (centres unmarked)  10.1%
18. C/C(=N\NC(=O)c1nnn(-c2nonc2N)c1CN(C)c1ccccc1)c1cccs1  9.23%
19. CC1=CC(=O)CC2C1(C)CCC(C)C2(C)CCC(C)CC(=O)O (centres unmarked)  8.07%
20. CSc1cccc(NC(=S)N2CCC(c3ccccc3)C2)c1 (centres unmarked)  7.54%
21. Cc1ccc(S(=O)(=O)N2CCN(C(=O)COC(=O)c3c(C)cc(C)cc3C)CC2)c(C)c1  3.33%
22. CC(C)(c1ccccc1)c1ccc(OCCCN2CCNCC2)cc1.O=C(O)C(=O)O  3.19%
23. Cc1ccc(C(=O)NNC(=O)C2CCN(c3ncccn3)CC2)cc1  3.14%
24. O=C(CCC(=O)N1CCN(S(=O)(=O)c2ccc(Cl)cc2)CC1)Nc1ccc2ccccc2c1  1.35%
25. COC(CNC(=O)C1CC(=O)N(CCc2ccccc2)C1)OC (centres unmarked)  -0.757%
26. CCOC(=O)c1nnn(-c2nonc2N)c1-c1ccc(Cl)cc1  -1.79%
27. COC(=O)Cc1ccc(NC(=O)C(c2ccccc2)c2ccccc2)cc1  -2.7%
28. CC1CCCCC1NC(=O)CSc1nnc(CN2CCOCC2)n1C (centres unmarked)  -4.63%
29. CN1CCN(C2OC(=O)c3ccccc32)CC1 (centres unmarked)  -5.6%
30. Cc1nn(-c2ccccc2)c(C)c1/C=N/NC(=O)c1cnccn1  -5.73%
31. CCN(CC)C(=O)COc1ccc2c(-c3ccccc3)cc(=O)oc2c1  -6.27%
32. COC(=O)c1sc2ncn(CC(=O)NCCc3ccc(OC)c(OC)c3)c(=O)c2c1C  -6.37%
33. CCN(CC)S(=O)(=O)c1ccc(-c2nnc(SCC(=O)Nc3nc(C)cs3)o2)cc1  -6.47%
34. COc1ccccc1N1CCN(C(=O)c2cc(-c3ccc(Cl)c(Cl)c3)on2)CC1  -6.54%
35. Cc1ccc(N=C(c2cccs2)N2CCOCC2)cc1  -7.14%
36. Cn1c(SCc2ccccc2)nnc1-c1ccc2nonc2c1  -9.18%
37. CC1CCN(C(=O)c2cccc(S(=O)(=O)N3CCCCC3)c2)CC1  -9.57%
38. O=S(=O)(NCC1CCN(S(=O)(=O)c2ccccc2)CC1)c1ccccc1  -9.78%
39. Cc1nnn(C23C[C@@H]4C[C@@H](CC(C(=O)N5CCN(c6ccccc6)CC5)(C4)C2)C3)n1  -10.2%
40. CCSc1nnc(NC(=O)C2CC(=O)N(Cc3ccccc3)C2)s1 (centres unmarked)  -10.5%
41. Cc1nc(SC(C)C(=O)c2c(N)n(C)c(=O)n(C)c2=O)c2c(C)c(C)sc2n1 (centres unmarked)  -10.8%
42. COc1ccc(N(CC(=O)NCc2ccco2)C(=O)CNS(=O)(=O)c2ccc(Cl)cc2)cc1  -10.9%
43. COc1ccc(C2=NN(C(N)=S)C(c3ccccc3)C2)cc1 (centres unmarked)  -14.9%
44. COc1ccc(C(=O)N/N=C(\C)CC(=O)Nc2cccc(C(F)(F)F)c2)cc1  -15.3%
45. O=C(CSc1ccc(-c2ccccn2)nn1)N1CCCc2ccccc21  -18.9%
46. CSCCC1NC(=O)N(CC(=O)N2N=C(c3ccc(Cl)cc3)CC2c2ccco2)C1=O (centres unmarked)  -19.4%
47. CCC(C)NC(=O)c1c(N)n(CCCOC)c2nc3ccccc3nc12 (centres unmarked)  -23.4%
48. Cc1c(Cl)cccc1NC(=S)NC1CCN(Cc2ccccc2)CC1  -24.2%
49. CCc1nc2oc3ccccc3c(=O)c2c(=O)n1-c1ccccc1  -24.4%
50. COc1cccc2cc(/C(C)=N/NC(=O)c3ccco3)oc12  -52.2%
51. Cc1ccc(S(=O)(=O)NCC(=O)N(CC2CCCO2)C(C(=O)NC2CCCCC2)C(C)C)cc1 (centres unmarked)  -52.7%
52. O=C(c1ccco1)N(Cc1cccc(Cl)c1)C1CCS(=O)(=O)C1 (centres unmarked)  -59%
53. COc1ccc(CCn2c(=N)c(C(=O)N3CCN(C)CC3)cc3c(=O)n4ccccc4nc32)cc1  -76.2%

— publication PMC4336329 (PLoS ONE, 2015)
